Measurements taken from PubChem BioAssay (Tox21).
The inconclusive results got no clear call from the source; some entries with a clear call stand among them for comparison. Potencies beside an inconclusive call are fits to weak or partial responses and may not hold up. Calls of active or inactive are those of the source. Unless noted, calls follow the shape of the full dose curve.

Assay: qHTS assay to identify small molecule agonists of the hypoxia (HIF-1) signaling pathway - cell viability counter screen (AID 1224844); also: nearly all actives have a fitted effect of over 50% in size; as to activity change, negative = cytotoxicity: % is scaled to controls: 0 for no effect and ±100 for the full control effect
Conditions: HRE-bla ME-180 viability, CellTiter-Glo luminescence, 17 h; series mostly up to 76.8 µM; activity change, negative = cytotoxicity: at the top concentration
Summary of the method: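 Tox21 10K compounds were added to HRE-bla ME-180 cells (0.5% dialyzed FBS) and incubated 17 hrs at 37C; ATP-based CellTiter-Glo luminescence then reported cell viability in the same wells.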
Potency is read from the fitted curve at half-maximal effect; tags tell the direction and shape of the fitted curve or compound fluorescence and quenching.

| Compound | activity change, negative = cytotoxicity | Potency |
| --- | --- | --- |
| CC1=C2C[C@H]3[C@@H](CC=C4C[C@@H](O)CC[C@@]43C)[C@@H]2CC[C@]12O[C@@H]1C[C@H](C)CN[C@H]1[C@H]2C | inactive: -20.4% [at 35.3 µM] | – |
| Oc1c(I)cc(I)cc1I | – | active: 38.9 µM |
| II | – | inconclusive: 19.5 µM [cytotoxic, full curve, poor fit] |
| c1ccc2c(c1)sc1ccccc12 | – | inactive |
| CC(=[OH+])/C=C(/C)[O-].CC(=[OH+])/C=C(\C)[O-].CC(=[OH+])/C=C(\C)[O-].[Fe] | – | inconclusive: 54.9 µM [cytotoxic, single point] |
| CN(C)[C@@H]1C(=O)C(C(N)=O)=C(O)[C@@]2(O)C(=O)C3=C(O)c4c(O)cccc4[C@@](C)(O)[C@H]3[C@H](O)[C@@H]12 | – | inconclusive: 61.5 µM [cytotoxic, partial curve, poor fit] |

Assay: qHTS assay to identify small molecule agonists of H2AX (AID 1224845; active = well fitted activation curve with a large enough effect in the signal ratio in the repeat runs, not every such curve was filed as active; inconclusive = weak or mixed curves; the % refers to the signal ratio; as to activation (H2AX phosphorylation): % is scaled to controls: 0 for no effect and ±100 for the full control effect)
Conditions: CHO-K1 phospho-H2AX Ser139 HTRF, 3 h; activation (H2AX phosphorylation): at 154 µM (top of the series) unless noted
Summary of the method: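 Wild-type CHO-K1 cells, plated overnight, exposed 3hr at 37C to 15 concentrations (0.76% DMSO final). Lysed, then HTRF anti-pH2AX (S139) cryptate and anti-H2AX-d2 antibodies, 24 hr room temperature; 665/620 nm emission read.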

| Compound | activation (H2AX phosphorylation) | Potency |
| --- | --- | --- |
| O=[N+]([O-])c1cc(Cl)c(Cl)c(Cl)c1 | inconclusive: 9.45% | – |
| O=C(NCNC(=O)NC1C(=O)NC(=O)N1CO)NC1C(=O)NC(=O)N1CO (configuration not stated) | inactive: -1.22% | – |
| CON(C)C(=O)Nc1ccc(Br)c(Cl)c1 | inactive: -2.25% | – |
| CC(=O)CCC(C)=O | inactive: -0.476% | – |
| CNC | – | inactive |
| COc1cc(N)c(Cl)cc1C(=O)NC1CN2CCC1CC2 (configuration not stated) | inactive: -2.76% [at 70.9 µM] | – |
| C1CCC(NC2CCCCC2)CC1 | – | inconclusive: 45 µM [rising, single point] |
| C=CC(=O)OC | inactive: -1.73% | – |
| Cc1cc(Cl)ccc1OCC(=O)O | – | inactive |
| O=[N+]([O-])c1cccc2cccc([N+](=O)[O-])c12 | – | inconclusive: 127 µM [fluorescent, single point] |
| CCN(CC)C(=O)Cl | inactive: -1.56% | – |
| OC(O)C(Cl)(Cl)Cl | – | inactive |
| FC(Cl)(Cl)Cl | inactive: -3.21% | – |
| CC1(C)Cc2cccc(O)c2O1 | – | inactive |
| O=C(O)C(Br)CBr (configuration not stated) | inactive: 3.7% | – |
| c1nc[nH]n1 | – | inconclusive: 4.5 µM [rising, partial curve, poor fit] |
| COc1c(C(C)(C)C)cc([N+](=O)[O-])c(C)c1[N+](=O)[O-] | inactive: -2.42% | – |

| Compound | activation (H2AX phosphorylation) | Potency |
| --- | --- | --- |
| CCCCCCC#N | inactive: 0.412% | – |
| CCCCN=C=O | inactive: 0.33% | – |
| CN | inactive: 0.163% | – |
| CC(C)(C)N(NC(=O)c1ccc(Cl)cc1)C(=O)c1ccccc1 | inactive: 0.95% | – |
| C=CC(=O)OCC(C)C | inactive: 0.686% | – |
| Nc1ccccc1 | – | inactive |
| O=[N+]([O-])O | – | inactive |
| N#CCc1ccccc1 | inactive: -1.01% | – |
| CNC(=O)Oc1cccc2c1OC(C)(C)O2 | – | inconclusive: 113 µM [activator] |
| N#CCCC#N | inactive: 0.828% | – |
| CCCCC(CC)CO[N+](=O)[O-] (configuration not stated) | inactive: 1.01% | – |
| CC[N+]1(C)CCCC1 | – | inactive |
| CNC(C)Cc1ccccc1OC (configuration not stated) | inactive: 4.14% [at 70.9 µM] | – |
| O=C1C(=O)c2cccc3cccc1c23 | – | inconclusive: 113 µM [activator, partial curve, poor fit] |
| O=Cc1ccc(Cl)cc1Cl | inactive: 0.726% | – |
| O=NN1CCCCCCC1 | – | inactive |

Assay: qHTS assay to identify small molecule agonists of the hypoxia (HIF-1) signaling pathway (AID 1224846; active = well fitted activation curve with a large enough effect in the signal ratio in the repeat runs, not every such curve was filed as active; inconclusive = weak or mixed curves; the % refers to the signal ratio)
Conditions: HRE-bla ME-180 cells, beta-lactamase ratio, 17 h; activation: at 76.8 µM (top of the series) unless noted
Summary of the method: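 Steps: seed ME-180 HRE-bla cells (2,000/well, 0.5% dialyzed FBS); incubate 5 hrs at 37C; pin-transfer compounds or DMSO; incubate 17 hrs; add LiveBLAzer B/G substrate CCF4-AM; measure reporter activation by FRET.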

| Compound | Potency |
| --- | --- |
| Oc1c(I)cc(I)cc1I | inconclusive: 49 µM |
| II | inconclusive: 15.5 µM [falling, partial curve] |
| CC(=[OH+])/C=C(/C)[O-].CC(=[OH+])/C=C(\C)[O-].CC(=[OH+])/C=C(\C)[O-].[Fe] | inconclusive: 54.9 µM [falling, single point] |

Assay: qHTS assay to identify small molecule agonists of H2AX - cell viability counter screen (AID 1224847); also: nearly all actives have a fitted effect of over 30% in size; as to activity change, negative = cytotoxicity: top concentration of the series differs between compounds; % is scaled to controls: 0 for no effect and ±100 for the full control effect
Conditions: CHO-K1 viability, CellTiter-Glo luminescence, 3 h; series mostly up to 154 µM; activity change, negative = cytotoxicity: at the top concentration
Summary of the method: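 CHO-K1 wt, 1000 cells/well, o/n 37C; cpds 15 conc, 3 h 37C, 0.76% DMSO; CellTiter-Glo, 30 min RT, luminescence.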

| Compound | Potency |
| --- | --- |
| CC1=C2C[C@H]3[C@@H](CC=C4C[C@@H](O)CC[C@@]43C)[C@@H]2CC[C@]12O[C@@H]1C[C@H](C)CN[C@H]1[C@H]2C | inconclusive: 49.2 µM [cytotoxic, single point] |
| Oc1c(I)cc(I)cc1I | inconclusive: 127 µM [cytotoxic, single point] |
| II | active: 80 µM |
| c1ccc2c(c1)sc1ccccc12 | inconclusive: 55.2 µM [cytotoxic, partial curve, poor fit] |
| CN(C)[C@@H]1C(=O)C(C(N)=O)=C(O)[C@@]2(O)C(=O)C3=C(O)c4c(O)cccc4[C@@](C)(O)[C@H]3[C@H](O)[C@@H]12 | inactive |
